According to the supplement of paper PMC8728848:
Some of the results follow.

How the values were obtained:
Test in all cases: glycan array binding signal (z-score within array); higher = stronger binding
Conditions in all cases: glycan notation: IUPAC condensed, linker removed
[1] = biological target: Fuc(a1-2)[Gal(a1-4)]Gal(b1-4)GlcNAc
How it was run: (§1)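 The binding signal is a Z-score computed within each array and averaged over linkers. Arrays of the same protein sequence at different concentrations or buffers were also averaged together. Data originate from 3228 arrays in the Consortium for Functional Glycomics database, kept only where the protein sequence was available.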

[2] = biological target: Fuc(a1-2)[GalNAc(a1-3)]Gal
How it was run: as §1

[3] = biological target: Fuc(a1-2)[GalNAc(a1-3)]Gal(b1-3)GalNAc(a1-3)[Fuc(a1-2)]Gal(b1-4)GlcNAc
How it was run: as §1

[4] = biological target: Fuc(a1-2)[GalNAc(a1-3)]Gal(b1-3)GalNAc(b1-3)Gal(a1-4)Gal(b1-4)Glc
How it was run: as §1

[5] = biological target: Fuc(a1-2)[GalNAc(a1-3)]Gal(b1-3)GlcNAc
How it was run: as §1

[6] = biological target: Fuc(a1-2)[GalNAc(a1-3)]Gal(b1-3)GlcNAc(b1-2)Man(a1-3)[Fuc(a1-2)[GalNAc(a1-3)]Gal(b1-3)GlcNAc(b1-2)Man(a1-6)]Man(b1-4)GlcNAc(b1-4)GlcNAc
How it was run: as §1

[7] = biological target: Fuc(a1-2)[GalNAc(a1-3)]Gal(b1-3)GlcNAc(b1-2)Man(a1-3)[Fuc(a1-2)[GalNAc(a1-3)]Gal(b1-3)GlcNAc(b1-2)Man(a1-6)]Man(b1-4)GlcNAc(b1-4)[Fuc(a1-6)]GlcNAc
How it was run: as §1

[8] = biological target: Fuc(a1-2)[GalNAc(a1-3)]Gal(b1-3)GlcNAc(b1-3)GalNAc
How it was run: as §1

[9] = biological target: Fuc(a1-2)[GalNAc(a1-3)]Gal(b1-3)GlcNAc(b1-6)GalNAc
How it was run: as §1

[10] = biological target: Fuc(a1-2)[GalNAc(a1-3)]Gal(b1-4)Glc
How it was run: as §1

[11] = biological target: Fuc(a1-2)[GalNAc(a1-3)]Gal(b1-4)GlcNAc
How it was run: as §1

[12] = biological target: Fuc(a1-2)[GalNAc(a1-3)]Gal(b1-4)GlcNAc(b1-2)Man
How it was run: as §1

[13] = biological target: Fuc(a1-2)[GalNAc(a1-3)]Gal(b1-4)GlcNAc(b1-2)Man(a1-3)[Fuc(a1-2)[GalNAc(a1-3)]Gal(b1-4)GlcNAc(b1-2)Man(a1-6)]Man(b1-4)GlcNAc(b1-4)GlcNAc
How it was run: as §1

[14] = biological target: Fuc(a1-2)[GalNAc(a1-3)]Gal(b1-4)GlcNAc(b1-2)Man(a1-3)[Fuc(a1-2)[GalNAc(a1-3)]Gal(b1-4)GlcNAc(b1-2)Man(a1-6)]Man(b1-4)GlcNAc(b1-4)[Fuc(a1-6)]GlcNAc
How it was run: as §1

[15] = biological target: Fuc(a1-2)[GalNAc(a1-3)]Gal(b1-4)GlcNAc(b1-3)Gal(b1-4)GlcNAc
How it was run: as §1

[16] = biological target: Fuc(a1-2)[GalNAc(a1-3)]Gal(b1-4)GlcNAc(b1-3)Gal(b1-4)GlcNAc(b1-3)Gal(b1-4)GlcNAc
How it was run: as §1

[17] = biological target: Fuc(a1-2)[GalNAc(a1-3)]Gal(b1-4)GlcNAc(b1-3)GalNAc
How it was run: as §1

[18] = biological target: Fuc(a1-2)[GalNAc(a1-3)]Gal(b1-4)GlcNAc(b1-3)[Fuc(a1-2)[GalNAc(a1-3)]Gal(b1-4)GlcNAc(b1-6)]GalNAc
How it was run: as §1

[19] = biological target: Fuc(a1-2)[GalNAc(a1-3)]Gal(b1-4)GlcNAc(b1-6)GalNAc
How it was run: as §1

[20] = biological target: Fuc(a1-2)[GalNAc(a1-3)]Gal(b1-4)[Fuc(a1-3)]GlcNAc
How it was run: as §1

[21] = biological target: Fuc(a1-2)[GalNAc(a1-3)]Gal(b1-4)[Fuc(a1-3)]GlcNAc(b1-3)GalNAc
How it was run: as §1

[22] = biological target: Fuc(a1-2)[GalNAc(a1-4)]Gal(b1-4)GlcNAc
How it was run: as §1

[23] = biological target: Fuc(a1-2)[GalNAc(b1-3)]Gal
How it was run: as §1

Fuc(a1-3)GlcNAc = biological target: Fuc(a1-3)GlcNAc
How it was run: as §1

[24] = biological target: Fuc(a1-3)[Gal(b1-4)]Glc6S
How it was run: as §1

[25] = biological target: Fuc(a1-3)[Gal(b1-4)]GlcNAc
How it was run: as §1

[26] = biological target: Fuc(a1-3)[Gal(b1-4)]GlcNAc(b1-2)Man
How it was run: as §1

[27] = biological target: Fuc(a1-3)[Gal(b1-4)]GlcNAc(b1-2)Man(a1-3)[Fuc(a1-3)[Gal(b1-4)]GlcNAc(b1-2)Man(a1-6)]Man(b1-4)GlcNAc(b1-4)GlcNAc
How it was run: as §1

[28] = biological target: Fuc(a1-3)[Gal(b1-4)]GlcNAc(b1-2)Man(a1-3)[Fuc(a1-3)[Gal(b1-4)]GlcNAc(b1-2)Man(a1-6)]Man(b1-4)GlcNAc(b1-4)[Fuc(a1-6)]GlcNAc
How it was run: as §1

[29] = biological target: Fuc(a1-3)[Gal(b1-4)]GlcNAc(b1-3)Gal(b1-3)[Fuc(a1-4)]GlcNAc
How it was run: as §1

[30] = biological target: Fuc(a1-3)[Gal(b1-4)]GlcNAc(b1-3)Gal(b1-4)[Fuc(a1-3)]GlcNAc
How it was run: as §1

[31] = biological target: Fuc(a1-3)[Gal(b1-4)]GlcNAc(b1-3)Gal(b1-4)[Fuc(a1-3)]GlcNAc(b1-3)Gal(b1-4)[Fuc(a1-3)]GlcNAc
How it was run: as §1

[32] = biological target: Fuc(a1-3)[Gal(b1-4)]GlcNAc(b1-3)GalNAc
How it was run: as §1

[33] = biological target: Fuc(a1-3)[Gal(b1-4)]GlcNAc(b1-6)GalNAc
How it was run: as §1

[34] = biological target: Fuc(a1-3)[Gal(b1-4)]GlcNAc(b1-6)[Gal(b1-3)GlcNAc(b1-3)]Gal(b1-4)Glc
How it was run: as §1

[35] = biological target: Fuc(a1-3)[Gal(b1-4)]GlcNAc6S
How it was run: as §1

[36] = biological target: Fuc(a1-3)[Gal3S(b1-4)]Glc
How it was run: as §1

[37] = biological target: Fuc(a1-3)[Gal3S(b1-4)]GlcNAc
How it was run: as §1

B1: B725 (Bifidobacterium sp) (protein)
chain: MNNTTRAVIATAAIGALLIPLAGCGNTTTSSGKTELTVWSWDASIDRAAKSFMKANPDITVKVSNVGSTEETYTALNNAAQAGSGLPDVTLIEYLAIPQFVHSDTLMDLSKVYNTAKLKDTFTPGTWNSVNINGGLYAMPADSGPMAYFYDKDVFDKAGISEPPTTWDEFYEDAKKIRATGSYITSDSGDAGLFNAMMWAMGGHAYKLNDDKLTINIAKDKGAQRFMDLWQKMRDEDLIDVHTKTWTDDWMKSLGDGSIASLISGAWMANNLLQGVPQATGKFRVALLPTIDGTPINGEYGGSGLAITKKIPDGKLDAAKKFVEYVTTNDEGIDARVSNGSFPATTKTLNQKDFLAKTTLRNTDGSDNEFFGGQKYNEIFSQAAKDVTGKWEFLPFEPYARSVYNDNMGSFFAGKTSFRTAADNWQKALKDYAKDQGFTVQ
**Q.** B1 was tested. Which “glycan array binding signal (z-score)” value [1] did it give?
**A.** -0.23

**Q.** And the “glycan array binding signal (z-score)” value [2]?
**A.** -0.228

**Q.** What about the “glycan array binding signal (z-score)” value [3] of the same binder?
**A.** -0.228

**Q.** What about the “glycan array binding signal (z-score)” value [4] of the same binder?
**A.** -0.224

**Q.** And the “glycan array binding signal (z-score)” value [5]?
**A.** -0.221

**Q.** And the “glycan array binding signal (z-score)” value [6]?
**A.** -0.209

**Q.** What about the “glycan array binding signal (z-score)” value [7] of the same binder?
**A.** -0.205

**Q.** And the “glycan array binding signal (z-score)” value [8]?
**A.** -0.213

**Q.** What about the “glycan array binding signal (z-score)” value [9] of the same binder?
**A.** -0.224

**Q.** What about the “glycan array binding signal (z-score)” value [10] of the same binder?
**A.** -0.222

**Q.** And the “glycan array binding signal (z-score)” value [11]?
**A.** -0.229

**Q.** What about the “glycan array binding signal (z-score)” value [12] of the same binder?
**A.** -0.219

**Q.** And the “glycan array binding signal (z-score)” value [13]?
**A.** -0.195

**Q.** And the “glycan array binding signal (z-score)” value [14]?
**A.** -0.222

**Q.** And the “glycan array binding signal (z-score)” value [15]?
**A.** -0.218

**Q.** And the “glycan array binding signal (z-score)” value [16]?
**A.** 2.04

**Q.** What about the “glycan array binding signal (z-score)” value [17] of the same binder?
**A.** -0.24

**Q.** What about the “glycan array binding signal (z-score)” value [18] of the same binder?
**A.** -0.22

**Q.** What about the “glycan array binding signal (z-score)” value [19] of the same binder?
**A.** -0.233

**Q.** What about the “glycan array binding signal (z-score)” value [20] of the same binder?
**A.** -0.217

**Q.** And the “glycan array binding signal (z-score)” value [21]?
**A.** -0.209

**Q.** What about the “glycan array binding signal (z-score)” value [22] of the same binder?
**A.** -0.229

**Q.** What about the “glycan array binding signal (z-score)” value [23] of the same binder?
**A.** -0.229

**Q.** What about the “glycan array binding signal (z-score)” value (Fuc(a1-3)GlcNAc) of the same binder?
**A.** -0.227

**Q.** And the “glycan array binding signal (z-score)” value [24]?
**A.** -0.183

**Q.** What about the “glycan array binding signal (z-score)” value [25] of the same binder?
**A.** -0.192

**Q.** And the “glycan array binding signal (z-score)” value [26]?
**A.** -0.21

**Q.** What about the “glycan array binding signal (z-score)” value [27] of the same binder?
**A.** -0.228

**Q.** What about the “glycan array binding signal (z-score)” value [28] of the same binder?
**A.** -0.197

**Q.** What about the “glycan array binding signal (z-score)” value [29] of the same binder?
**A.** -0.218

**Q.** And the “glycan array binding signal (z-score)” value [30]?
**A.** -0.099

**Q.** And the “glycan array binding signal (z-score)” value [31]?
**A.** -0.21

**Q.** And the “glycan array binding signal (z-score)” value [32]?
**A.** -0.216

**Q.** And the “glycan array binding signal (z-score)” value [33]?
**A.** -0.187

**Q.** And the “glycan array binding signal (z-score)” value [34]?
**A.** -0.174

**Q.** What about the “glycan array binding signal (z-score)” value [35] of the same binder?
**A.** -0.21

**Q.** And the “glycan array binding signal (z-score)” value [36]?
**A.** -0.235

**Q.** And the “glycan array binding signal (z-score)” value [37]?
**A.** -0.223
